Assay results from PMC6706580.
Substitutions are numbered along the chain they refer to. No constants are given. Whether binding was seen depends on the method and setting. For some assays here: Binding seen in cells or lysates may run through a third protein. Some results given as binding are weak or reduced against the parent protein; the word gives no strength. Tags and fused reporters may be left off the sequences shown.

What was measured:
[1] = biological target: T1, GTL1N (N-terminal trihelical DNA-binding domain of GT2-LIKE 1) fused with maltose-binding protein (Arabidopsis) (UniProt Q9C882); test: far-Western, overlay or dot blot; MBP fusion GTL1 proteins separated by SDS-PAGE and transferred to PVDF; 1 µg/ml HRP-AtCaM2 in overlay buffer (50 mM imidazole-HCl pH 7.5, 150 mM NaCl) in the presence of EGTA, 1 h; both purified
T1 sequence: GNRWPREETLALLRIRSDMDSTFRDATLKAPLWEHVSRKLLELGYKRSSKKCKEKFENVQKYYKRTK

[2] = biological target: T1, GTL1N (N-terminal trihelical DNA-binding domain of GT2-LIKE 1) fused with maltose-binding protein (Arabidopsis); test: far-Western, overlay or dot blot; MBP fusion GTL1 proteins separated by SDS-PAGE and transferred to PVDF; 1 µg/ml HRP-AtCaM2 in overlay buffer (50 mM imidazole-HCl pH 7.5, 150 mM NaCl) in the presence of Ca^2+, 1 h; both purified
[3] = biological target: T1, GTL1N (N-terminal trihelical DNA-binding domain of GT2-LIKE 1) fused with maltose-binding protein (Arabidopsis); test: pull-down; as a1 but with EGTA treatment (Ca^2+ chelated); MBP fusion proteins on amylose resin, in vitro-translated HA-AtCaM2; anti-HA immunoblot; only the target purified
[4] = biological target: T1, GTL1N (N-terminal trihelical DNA-binding domain of GT2-LIKE 1) fused with maltose-binding protein (Arabidopsis); test: pull-down; MBP or MBP fusion proteins immobilised on amylose resin; in vitro-translated HA-AtCaM2 in CaM-binding buffer (50 mM Tris-HCl pH 7.5, 100 mM NaCl, 1% DMSO, 2 mM DTT, 2 mM CaCl2), 4 °C, 2 h; anti-HA immunoblot; only the target purified
[5] = biological target: T2, GTL1N[H94E] fused with maltose-binding protein (Arabidopsis) (UniProt Q9C882); test: as above
T2 sequence: T1 sequence with H35E

Row | Substance | binding [1] | binding [2] | binding [3] | binding [4] | binding [5]
1 | AtCaM2 conjugated with horseradish peroxidase (HRP) (from UniProt P0DH97 1-149) | no binding (condition: with EGTA) | binds | – | – | –
2 | HA-Arabidopsis CaM2 (AtCaM2) (from UniProt P0DH97 1-149) | – | – | no binding (condition: with EGTA) | binds | no binding
